Measurements taken from the supplement of paper PMC3334620.
The full ranking holds about 33,000 sequences; the median of “E-score (-0.5 to 0.5)” is about -0.054, and the highest 2% start at about 0.35. The list shows a part of the results.

biological target: T1, Stb5 (UniProt P38699); assay: PBM E-score (8-mer binding enrichment) (E-score (-0.5 to 0.5)); higher = stronger / more preferred TF binding; most listed sequences are background and not binding sites; details: protein concentration: 200 nM; construct: GST-full length
T1 sequence: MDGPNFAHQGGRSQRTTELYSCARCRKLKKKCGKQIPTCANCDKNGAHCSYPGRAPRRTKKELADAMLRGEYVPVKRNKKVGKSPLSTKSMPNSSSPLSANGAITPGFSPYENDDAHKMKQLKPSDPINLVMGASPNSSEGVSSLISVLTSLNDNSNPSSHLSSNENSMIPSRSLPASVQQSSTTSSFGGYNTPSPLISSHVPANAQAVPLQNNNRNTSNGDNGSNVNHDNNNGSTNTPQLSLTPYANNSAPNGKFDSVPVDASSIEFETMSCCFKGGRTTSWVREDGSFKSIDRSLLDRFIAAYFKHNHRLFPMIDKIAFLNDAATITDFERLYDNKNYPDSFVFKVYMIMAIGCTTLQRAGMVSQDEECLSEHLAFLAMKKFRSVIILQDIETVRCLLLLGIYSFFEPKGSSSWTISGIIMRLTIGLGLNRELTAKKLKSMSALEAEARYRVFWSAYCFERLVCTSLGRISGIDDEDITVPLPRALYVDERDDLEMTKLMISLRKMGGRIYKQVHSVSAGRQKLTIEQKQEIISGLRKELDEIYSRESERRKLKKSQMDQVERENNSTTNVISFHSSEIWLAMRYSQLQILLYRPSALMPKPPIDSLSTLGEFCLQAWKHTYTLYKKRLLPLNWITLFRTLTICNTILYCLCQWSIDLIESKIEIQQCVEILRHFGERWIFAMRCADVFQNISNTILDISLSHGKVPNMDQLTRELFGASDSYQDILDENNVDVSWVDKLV
Procedure, shortened: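 GST-tagged yeast TFs (full-length or DNA-binding domain) were made by PURExpress in vitro transcription/translation and applied at about 100-200 nM to universal all-10-mer Agilent arrays. The arrays were made double-stranded by primer extension, on fresh or once-stripped slides. Bound protein was detected with fluorescent anti-GST, and scans were normalised with masliner. Each ungapped eight-base word, pooled with its reverse complement, received an E-score (modified Wilcoxon-Mann-Whitney statistic) from the Universal PBM Analysis Suite.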

Sequence	PBM E-score
CCGAACGG	0.326
GGGTAGGA	0.0613
CTAAAGGA	0.0339
ATTTTTTG	-0.163
GCCCAAAA	-0.0155
AGTGGCAA	-0.04
AACCCTCC	-0.0222
ATAAGTCG	0.15
AGGAGACT	-0.297
AACGTTGG	-0.13
CACGCTCA	-0.135
ATGTGCGA	0.0142
CGTGCGCC	0.166
CACCAAGA	-0.103
ATTGGTCC	0.183
ATGGCGGA	0.301
GCGGATAC	0.241
CTTCCATC	-0.0873
ATCAGTTG	-0.328
CGACCAGA	0.0557
GATCTTGC	0.118
ATCGCACG	-0.164
TCGGCAAA	0.107
GAGCGATC	-0.145
AAGCGCGA	-0.0142

Sequence	PBM E-score
GACATAGC	0.00747
ACCAAGGA	-0.164
ATCGGGGC	0.356
ACTCTCCC	-0.105
AATAGACT	-0.155
ATAACCCC	0.412
CCGTGTAC	0.0452
CAGTACTA	-0.275
ACTTGAGC	-0.28
GATTTTAC	0.121
ACATGAGT	-0.171
CCTATATC	0.0282
AATTCCTC	-0.074
GTCGTGGA	-0.0244
CGAAATAG	0.193
CTCGAAGC	0.0245
AAGTAGAA	-0.157
ACAAGACC	0.116
ACCAGGAG	-0.167
CTCATAAG	-0.0661
TCTGCGCA	-0.154
AGAGGTAC	-0.205
CATCCCCC	0.0171
CGTCCGAC	0.281
GACGAAGC	-0.121

Sequence	PBM E-score
GGAACGAC	0.0626
CTAATAGA	-0.0219
GCCGCGAA	0.15
ATATAGTA	-0.0192
GACGGATA	0.276
ATCGCTTA	-0.192
TGCACTAA	-0.16
CGGGGGAG	-0.0116
AGATTCGG	0.183
AGCACATC	-0.0901
GAGTATGA	-0.0342
ACTATTGA	-0.158
TCCGATAA	0.248
AGTGGATA	0.0226
AGACGGGG	0.337
CTGAATAA	-0.0873
TAATTATA	0.0829
GGCGAAGA	0.0363
CCCCTACG	-0.117
CCAGCTTC	-0.334
CGCACTAC	-0.0166
CAAGGATA	0.0115
ACCACTTG	-0.106
CACGGTAG	0.0342
GTCGTTAA	-0.0792

Sequence	PBM E-score
AGCCCCTC	-0.251
CCCAAAAC	-0.185
CACTAGTG	-0.189
CATTATGA	-0.0857
CAAAAACG	-0.0422
CTCGAAAA	-0.0432
CAACCAAG	-0.0924
CGGGGGCA	0.275
ACATGAGC	-0.133
GAACGATA	-0.129
GACGAATC	-0.0686
AGTAACAG	-0.0575
AAGCCCGG	0.411
AGATACCC	-0.00091
CGCTCATA	0.155
AAACCCTA	-0.116
ACCTCTGG	-0.0823
CAGACCCC	0.0611
AGAGATGG	0.0604
ACAAATCA	-0.17
GTGATAAC	0.147
TAGAGAGA	-0.0919
CCCCAGGG	-0.252
GGATCACA	-0.0709
CAATTGCC	0.0086

Sequence	PBM E-score
GCGTCGCC	-0.0704
CACCGCCA	0.408
CTCCAACC	-0.0939
CGGTTCTA	0.36
ATGCCCAC	-0.159
AGTTCGAG	-0.218
AAATTCAC	0.0649
ATGATCCC	0.175
CACCGAAG	0.253
GATAAATA	0.0331
TGGTTGAA	-0.234
GGCTAAAC	-0.00562
GGGCGCAA	0.0579
GGATTATA	0.234
AACGTCAC	-0.192
ATCATGCG	-0.0179
ATCCTACA	-0.14
CGCAAGGC	0.0922
CGGAGCAC	0.121
ATTCAAAG	-0.12
CGTAACAG	0.0569
ACGGGGAG	0.202
CGCGGGTC	0.208
CAACGACA	-0.0514
CCTTAGTA	-0.0689

Sequence	PBM E-score
CAGACCTA	-0.311
AACTCCGC	0.438
ACCTTGAG	-0.22
ACCAGGGT	-0.165
CAGAATGG	-0.284
GGGTAAAC	0.0693
GAACAGTA	-0.166
GTTATACA	0.0285
CCGGCCCC	0.177
AACTGTAC	-0.233
GTGAATCA	-0.0539
TCAATGCA	-0.182
CTGATGTA	-0.0976
AGCGAATA	-0.136
AAATGTGT	-0.0313
AGACGTCT	-0.264
GAAAAACC	0.179
AAATTTAC	0.0373
CTCGGTGC	0.148
CGCACTGC	0.0549
AAGCGGGG	0.296
CGTTTAAG	0.105
ACGCAGGG	-0.183
AACCATCG	0.041
AGCTCAGC	-0.295

Sequence	PBM E-score
GGTACCGA	0.286
CACAGCTG	-0.0609
ATTGTACC	0.093
CTCACGGC	0.219
TACGCCGA	0.299
GGCACTTA	0.149
AAATAGGG	-0.109
AGTCTTAG	-0.256
CAGTTAGG	-0.226
GTATCTAA	-0.051
ACAAAAAC	0.112
GAACATAC	-0.0026
GGCAACAC	0.0891
AGGCAGTA	-0.205
TAACGAAA	0.039
TCCGTACA	0.219
ACGAGCGA	-0.338
GACTACAA	-0.147
CAGGAGGA	-0.0178
GAATGGCA	0.14
CGCAGATA	0.117
ATCTCGAC	-0.15
